The source of these data is paper PMC6120582.

The assay addresses eIF2B(βγδε) heterotetramer with δL179V (human), P49770.

B1: eIF2B(βγδε) heterotetramer with δL179V (complex)
chain 1: MPGSAAKGSELSERIESFVETLKRGGGPRSSEEMARETLGLLRQIITDHRWSNAGELMELIRREGRRMTAAQPSETTVGNMVRRVLKIIREEYGRLHGRSDESDQQESLHKLLTSGGLNEDFSFHYAQLQSNIIEAINELLVELEGTMENIAAQALEHIHSNEVIMTIGFSRTVEAFLKEAARKRKFHVIVAECAPFCQGHEMAVNLSKAGIETTVMTDAAIFAVMSRVNKVIIGTKTILANGALRAVTGTHTLALAAKHHSTPLIVCAPMFKLSPQFPNEEDSFHKFVAPEEVLPFTEGDILEKVSVHCPVFDYVPPELITLFISNIGGNAPSYIYRLMSELYHPDDHVL
chain 2: MEFQAVVMAVGGGSRMTDLTSSIPKPLLPVGNKPLIWYPLNLLERVGFEEVIVVTTRDVQKALCAEFKMKMKPDIVCIPDDADMGTADSLRYIYPKLKTDVLVLSCDLITDVALHEVVDLFRAYDASLAMLMRKGQDSIEPVPGQKGKKKAVEQRDFIGVDSTGKRLLFMANEADLDEELVIKGSILQKHPRIRFHTGLVDAHLYCLKKYIVDFLMENGSITSIRSELIPYLVRKQFSSASSQQGQEEKEEDLKKKELKSLDIYSFIKEANTLNLAPYDACWNACRGDRWEDLSRSQVRCYVHIMKEGLCSRVSTLGLYMEANRQVPKLLSALCPEEPPVHSSAQIVSKHLVGVDSLIGPETQIGEKSSIKRSVIGSSCLIKDRVTITNCLLMNSVTVEEGSNIQGSVICNNAVIEKGADIKDCLIGSGQRIEAKAKRVNEVIVGNDQLMEI
chain 3: not shown
chain 4: MAAPVVAPPGVVVSRANKRSGAGPGGSGGGGARGAEEEPPPPLQAVLVADSFDRRFFPISKDQPRVLLPLANVALIDYTLEFLTATGVQETFVFCCWKAAQIKEHLLKSKWCRPTSLNVVRIITSELYRSLGDVLRDVDAKALVRSDFLLVYGDVISNINITRALEEHRLRRKLEKNVSVMTMIFKESSPSHPTRCHEDNVVVAVDSTTNRVLHFQKTQGLRRFAFPLSLFQGSSDGVEVRYDLLDCHISICSPQVAQLFTDNFDYQTRDDFVR[about 20 residues not printed]VSNLHMYSAVCADVIRRWVYPLTPEANFTDSTTQSCTHSRHNIYRGPEVSLGHGSILEENVLLGSGTVIGSNCFITNSVIGPGCHIGDNVVLDQTYLWQGVRVAAGAQIHQSLLCDNAEVKERVTLKPRSVLTSQVVVGPNITLPEGSVISLHPPDAEEDEDDGEFSDDSGADQEKDKVKMKGYNPAEVGAAGKGYLWKAAGMNMEEEEELQQNLWGLKINMEEESESESEQSMDSEEPDSRGGSPQMDDIKVFQNEVLGTLQRGKEENISCDNLVLEINSLKYAYNISLKEVMQVLSHVVLEFPLQQMDSPLDSSRYCALLLPLLKAWSPVFRNYIKRAADHLEALAAIEDFFLEHEALGISMAKVLMAFYQLEILAEETILSWFSQRDTTDKGQQLRKNQQLQRFIQWLKEAEEESSEDD
In the case of B1, the GEF activity of eIF2B(βγδε) containing δL179V, with ISRIB worked out at 0.024 min⁻¹ and the GEF activity of eIF2B(βγδε) containing δL179V, without ISRIB came to 0.027 min⁻¹.
